# Measured values taken from article PMC9911399, “Two distinct binding modes provide the RNA-binding protein RbFox with extraordinary sequence specificity”.
# Changes are numbered by the printed parent chain; changes in the protein carry UniProt numbers. The list shows a part of the results.
# T1: RBFOX1 RRM (Homo sapiens, UniProt Q9NWB1 109-208)
# T1 sequence: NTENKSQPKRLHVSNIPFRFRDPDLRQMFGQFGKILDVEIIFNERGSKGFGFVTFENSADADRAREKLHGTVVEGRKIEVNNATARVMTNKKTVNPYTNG
# B1: CCUCGGG (DNA:RNA)
# RNA: GGGAGACCGGAAUUCAGAUUGUCCCCUCGGGUUAAAUCCCGUCGUAGCCACCA
# DNA 1: CAATCTGAATTCCGGTCTCCC
# DNA 2: TGGTGGCTACGACGGGATT
# B2: CCUCUCG (DNA:RNA)
# RNA: B1 RNA with G29U, G30C
# DNA 1: CAATCTGAATTCCGGTCTCCC
# DNA 2: TGGTGGCTACGACGGGATT
# B3: UCUGCCU (DNA:RNA)
# RNA: B1 RNA with C25U, C28G, G29C, G30C, G31U
# DNA 1: CAATCTGAATTCCGGTCTCCC
# DNA 2: TGGTGGCTACGACGGGATT
# B4: UGUAUAU (DNA:RNA)
# RNA: B1 RNA with C25U, C26G, C28A, G29U, G30A, G31U
# DNA 1: CAATCTGAATTCCGGTCTCCC
# DNA 2: TGGTGGCTACGACGGGATT
# B5: AUCCCAU (DNA:RNA)
# RNA: B1 RNA with C25A, C26U, U27C, G29C, G30A, G31U
# DNA 1: CAATCTGAATTCCGGTCTCCC
# DNA 2: TGGTGGCTACGACGGGATT
# B6: GUCCCUA (DNA:RNA)
# RNA: B1 RNA with C25G, C26U, U27C, G29C, G30U, G31A
# DNA 1: CAATCTGAATTCCGGTCTCCC
# DNA 2: TGGTGGCTACGACGGGATT
# B7: UGUGUCA (DNA:RNA)
# RNA: B1 RNA with C25U, C26G, C28G, G29U, G30C, G31A
# DNA 1: CAATCTGAATTCCGGTCTCCC
# DNA 2: TGGTGGCTACGACGGGATT
# B8: GACAGGA (DNA:RNA)
# RNA: B1 RNA with C25G, C26A, U27C, C28A, G31A
# DNA 1: CAATCTGAATTCCGGTCTCCC
# DNA 2: TGGTGGCTACGACGGGATT
# B9: CAAGCCA (DNA:RNA)
# RNA: B1 RNA with C26A, U27A, C28G, G29C, G30C, G31A
# DNA 1: CAATCTGAATTCCGGTCTCCC
# DNA 2: TGGTGGCTACGACGGGATT
# B10: GGGCCUC (DNA:RNA)
# RNA: B1 RNA with C25G, C26G, U27G, G29C, G30U, G31C
# DNA 1: CAATCTGAATTCCGGTCTCCC
# DNA 2: TGGTGGCTACGACGGGATT
# B11: GAGAACU (DNA:RNA)
# RNA: GGGAGACCGGAAUUCAGAUUGUCCGAGAACUUUAAAUCCCGUCGUAGCCACCA
# DNA 1: CAATCTGAATTCCGGTCTCCC
# DNA 2: TGGTGGCTACGACGGGATT
# B12: ACUGGCA (DNA:RNA)
# RNA: B1 RNA with C25A, C28G, G30C, G31A
# DNA 1: CAATCTGAATTCCGGTCTCCC
# DNA 2: TGGTGGCTACGACGGGATT
# B13: GUGGCUG (DNA:RNA)
# RNA: B11 RNA with A26U, A28G, A29C, C30U, U31G
# DNA 1: CAATCTGAATTCCGGTCTCCC
# DNA 2: TGGTGGCTACGACGGGATT
# B14: ACAGCUC (DNA:RNA)
# RNA: B1 RNA with C25A, U27A, C28G, G29C, G30U, G31C
# DNA 1: CAATCTGAATTCCGGTCTCCC
# DNA 2: TGGTGGCTACGACGGGATT
# B15: UUCCUAG (DNA:RNA)
# RNA: B1 RNA with C25U, C26U, U27C, G29U, G30A
# DNA 1: CAATCTGAATTCCGGTCTCCC
# DNA 2: TGGTGGCTACGACGGGATT
# B16: AUGAACA (DNA:RNA)
# RNA: B11 RNA with G25A, A26U, U31A
# DNA 1: CAATCTGAATTCCGGTCTCCC
# DNA 2: TGGTGGCTACGACGGGATT
# B17: AACCACU (DNA:RNA)
# RNA: B11 RNA with G25A, G27C, A28C
# DNA 1: CAATCTGAATTCCGGTCTCCC
# DNA 2: TGGTGGCTACGACGGGATT
# B18: GAGGCAG (DNA:RNA)
# RNA: B11 RNA with A28G, A29C, C30A, U31G
# DNA 1: CAATCTGAATTCCGGTCTCCC
# DNA 2: TGGTGGCTACGACGGGATT
# B19: UGGACUG (DNA:RNA)
# RNA: B11 RNA with G25U, A26G, A29C, C30U, U31G
# DNA 1: CAATCTGAATTCCGGTCTCCC
# DNA 2: TGGTGGCTACGACGGGATT
# B20: GCGUUCU (DNA:RNA)
# RNA: B11 RNA with A26C, A28U, A29U
# DNA 1: CAATCTGAATTCCGGTCTCCC
# DNA 2: TGGTGGCTACGACGGGATT
# Target: T1, RBFOX1 RRM
# Test: EMSA; HiTS-Eq, 1 nM pool, 10 min; buffer printed only for the single-RNA assays: 10 mM Tris pH 7.5, 150 mM NaCl, 3.4 mM EDTA, 0.001% NP-40, 30 C
# Conditions: tags: His6 N-terminal (pET28a); label: 5' 32P
# Method in brief: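 These values rest on relative association constants, computed from read-count changes of each RNA species versus the control reaction and normalised to the cognate motif. Reads came from free RNA recovered by 8% native PAGE after purified RbFox RRM (wild type or mutant) at increasing concentrations was equilibrated for 10 min in 50 µL with 1 nM of a 5′-radiolabelled pool with 7 randomized nucleotides and DNA-annealed flanks.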
row,Binder,binding signal
1,B1,0.00382 KA relative to UGCAUGU
2,B2,0.00553 KA relative to UGCAUGU
3,B3,0.0139 KA relative to UGCAUGU
4,B4,0.0126 KA relative to UGCAUGU
5,B5,0.000586 KA relative to UGCAUGU
6,B6,0.0124 KA relative to UGCAUGU
7,B7,0.016 KA relative to UGCAUGU
8,B8,0.00822 KA relative to UGCAUGU
9,B9,0.00227 KA relative to UGCAUGU
10,B10,0.0133 KA relative to UGCAUGU
11,B11,0.0125 KA relative to UGCAUGU
12,B12,0.0143 KA relative to UGCAUGU
13,B13,0.0289 KA relative to UGCAUGU
14,B14,0.00303 KA relative to UGCAUGU
15,B15,0.00517 KA relative to UGCAUGU
16,B16,0.00581 KA relative to UGCAUGU
17,B17,0.00154 KA relative to UGCAUGU
18,B18,0.0185 KA relative to UGCAUGU
19,B19,0.0448 KA relative to UGCAUGU
20,B20,0.0151 KA relative to UGCAUGU
